# Source: the supplement of paper PMC3334620
# Whole data set: some 33,000 sequences, median “E-score (-0.5 to 0.5)” near -0.012, cut for the highest 2% near 0.27. The list shows a part of the results.
# Target: T1, Vhr1 (UniProt P40522)
# T1 sequence: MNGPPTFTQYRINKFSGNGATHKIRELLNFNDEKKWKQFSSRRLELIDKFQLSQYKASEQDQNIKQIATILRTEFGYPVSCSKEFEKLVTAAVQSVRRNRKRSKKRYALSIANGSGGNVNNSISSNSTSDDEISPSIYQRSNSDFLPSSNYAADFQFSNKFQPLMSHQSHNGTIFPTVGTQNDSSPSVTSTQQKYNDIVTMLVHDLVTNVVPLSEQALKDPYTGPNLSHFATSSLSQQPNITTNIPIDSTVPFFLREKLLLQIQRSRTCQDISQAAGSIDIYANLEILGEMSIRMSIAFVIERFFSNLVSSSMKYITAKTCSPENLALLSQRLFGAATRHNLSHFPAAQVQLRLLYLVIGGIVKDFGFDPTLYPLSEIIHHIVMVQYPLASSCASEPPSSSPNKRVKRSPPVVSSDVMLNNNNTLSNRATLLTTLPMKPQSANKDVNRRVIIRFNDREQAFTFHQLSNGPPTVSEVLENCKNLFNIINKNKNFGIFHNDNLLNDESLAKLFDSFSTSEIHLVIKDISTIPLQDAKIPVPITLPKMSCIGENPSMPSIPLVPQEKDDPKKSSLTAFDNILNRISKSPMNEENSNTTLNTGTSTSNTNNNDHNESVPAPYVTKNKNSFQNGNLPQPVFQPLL
# Assay: PBM E-score (8-mer binding enrichment) (E-score (-0.5 to 0.5)); higher = stronger / more preferred TF binding; most listed sequences are background and not binding sites
# Settings: protein concentration: 200 nM; construct: GST-full length
# Outline: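 Full-length yeast transcription factors or their DNA-binding domains, GST-tagged and expressed with PURExpress, were applied at about 100-200 nM to universal all-10-mer Agilent arrays. These arrays had been made double-stranded by primer extension on fresh or once-stripped slides. Detection used fluorescent anti-GST, normalisation used masliner, and E-scores for ungapped eight-base words pooled with reverse complements came from the Universal PBM Analysis Suite.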
row,Sequence,PBM E-score
1,ATGGATTA,-0.0563
2,CCTCATAA,-0.0654
3,AGTTGGTG,0.0949
4,GAGAGATC,-0.0513
5,AATTGGGT,0.149
6,TCGATGCA,0.0113
7,AAATCGAC,-0.0335
8,AAACGCTC,-0.237
9,CGTAGCAC,-0.00284
10,ATCGCCCA,0.0033
11,CTGACGTC,-0.0519
12,AGACAAGC,-0.182
13,CTTCGGAC,-0.073
14,TGATACCA,0.0612
15,CGTAGGCA,-0.227
16,AATGGCTC,0.137
17,CCACAATA,0.167
18,CTAATTGA,-0.0104
19,GCAATCGC,-0.188
20,ATTGTCTA,0.053
21,ATCTGATA,0.0202
22,GCATACCC,0.183
23,CTCTGCCA,-0.0556
24,CTCGGACA,-0.152
25,CCTAACTC,-0.0781

row,Sequence,PBM E-score
1,CAAACGTC,-0.137
2,GCTCGTTA,-0.073
3,ATAACAAC,0.00638
4,ATATTAAC,0.267
5,CGCGGTAG,0.0442
6,GCTACAGA,-0.0376
7,CCTGACCA,0.0879
8,CAGACTTA,-0.253
9,GCGACAAA,-0.0841
10,ACACTGAA,0.138
11,ATCTCAAA,-0.0488
12,GATATCAA,0.0828
13,GAACTGCA,0.0004
14,TGTGGCAA,0.129
15,GACTCCAA,0.237
16,CAAGACTA,-0.0514
17,CATGGGAG,0.045
18,GCGGTAAA,0.0603
19,CCCGCCCG,0.259
20,ACCTCCCC,0.0988
21,ATACCTCC,0.053
22,ACGCTCCA,-0.0133
23,TCTCCGAA,-0.151
24,AACATACC,0.11
25,AGATTGAA,-0.143

row,Sequence,PBM E-score
1,TCATACCA,0.0387
2,ACAGGATA,-0.0561
3,AAGGCCGA,-0.115
4,ACCTACGC,-0.244
5,AGCTGACC,0.116
6,CGCGAACG,0.0385
7,GAATAGGC,-0.171
8,CGGCCTCC,-0.0282
9,AAACGATC,-0.173
10,AGGGCACA,0.0279
11,GATCCTCA,0.0533
12,AGCATGAT,0.158
13,GGGATCCC,-0.0726
14,CAGTCTCA,0.138
15,ATGCCAGC,-0.237
16,AGTAACAT,0.169
17,ATGGACGC,0.0395
18,AGACGTAG,-0.15
19,ATAAACCA,-0.0222
20,ATCGCCTC,0.108
21,ACTGCCGG,0.052
22,AAAGTATC,-0.0826
23,GGGATGAA,-0.00977
24,AAAACTTC,-0.34
25,AGTGCTTC,-0.125

row,Sequence,PBM E-score
1,GAAGGTGA,0.104
2,ACTACTGA,0.191
3,AGCATTAC,-0.126
4,GAGGCATA,-0.0229
5,CATTTCAA,-0.165
6,GCTGGAAA,-0.141
7,TGCCTGAA,-0.141
8,AATCTCCG,-0.0044
9,AGGAATAG,-0.0681
10,CTCGGCCC,-0.103
11,ACTCACAG,0.325
12,CTCCGATC,-0.116
13,CAGATTGA,0.162
14,CAATAGTG,0.0794
15,GGTGGAGA,-0.0143
16,CTGGTGAC,0.162
17,GGAAAGCA,-0.0895
18,CGACTTAA,-0.336
19,CGAACTGC,-0.0468
20,GGCAATAA,-0.0658
21,CTCCTGCC,0.0202
22,AGAAACTG,-0.169
23,TGTCGAAA,-0.0195
24,AGTAAGGG,-0.0311
25,ATCTAGTG,-0.0252

row,Sequence,PBM E-score
1,CATCCGTA,0.0236
2,GAGCACCA,-0.00305
3,CACACGTG,0.182
4,CCGCCAAG,-0.0739
5,CGCCTGGC,0.111
6,ACAAGACG,-0.0317
7,AGGGGTGG,0.256
8,GATCAAGC,0.00723
9,CAAGACTG,-0.0294
10,ACAAATCT,-0.0797
11,ATACCATG,0.153
12,AGGAATAA,-0.0851
13,CCGATTTA,-0.23
14,ACCTAAGA,-0.114
15,ATTGGAAG,-0.109
16,GCACAATA,-0.026
17,GATGCGAA,-0.063
18,ATGTATCC,0.194
19,ACCCTGCC,-0.0602
20,GGCTCGCA,0.163
21,CCCAGAAA,-0.0201
22,GGGCAAAC,0.0298
23,TAGCCGGA,0.128
24,ACGTGTGG,-0.0756
25,CTCGGCAC,0.0297

row,Sequence,PBM E-score
1,CGTTCTGC,-0.0287
2,ACCAAGCC,-0.00713
3,AGTTGTGG,0.159
4,AAGGCTAC,-0.186
5,CCAAGCTA,-0.128
6,AAATAGAG,-0.141
7,CGGGAACA,0.0918
8,AACGACAG,0.0106
9,GACGCCAA,-0.109
10,GAAGAGTA,-0.059
11,AAACCGCT,-0.135
12,ACATGGTC,0.165
13,CCTGAGCC,0.115
14,AGTTTAAT,-0.108
15,TCTTGGCA,-0.054
16,AATCTAAG,-0.257
17,AAACGAGC,-0.126
18,ACACGTCT,0.0135
19,ATTCACCA,0.0408
20,CTTGTACA,-0.273
21,CTACACCA,-0.0652
22,CCAACATC,0.175
23,AGCATATC,0.21
24,GCGTTTGA,-0.199
25,AATATTGT,0.0702

row,Sequence,PBM E-score
1,AATCTAAC,-0.114
2,TAACCATA,0.103
3,ACTACGTA,0.161
4,CCCATCTA,0.0186
5,ACACCATA,0.164
6,ATGATCCA,0.13
7,GTAGATGA,0.232
8,TGGATCCA,-0.0454
9,GGCGAAAC,-0.0234
10,ATTTGCGC,-0.0712
11,GATCCCAC,0.0999
12,AATCTTAG,-0.116
13,AGTGTTAT,-0.0408
14,AAAGAGGG,-0.222
15,AGCGCTAC,-0.194
16,CTGCCATA,0.215
17,CATTCGTC,0.122
18,GGTTGGCA,-0.0149
19,CTAAGTCA,0.12
20,CTACGTGA,-0.18
21,CCCAACTA,0.0273
22,CCCGAGAG,-0.132
23,AATTCGCC,-0.0371
24,ATAGCTGC,0.107
25,GCGGGCAA,0.121

row,Sequence,PBM E-score
1,CGAAAACC,-0.164
2,AATATTAT,0.16
3,CGTTAACC,-0.0242
4,GACTGAAA,0.0643
5,AGCCATCA,0.213
6,GAGAAAGA,-0.167
7,TCTAGGAA,-0.167
8,TGACTACA,0.359
9,AACCATAC,0.139
10,CAACTGCG,0.00524
11,CTCCCTCC,-0.068
12,GAGCAAAA,-0.314
13,CACTACGC,-0.0987
14,ATCCAGGA,-0.0709
15,AGATACTA,0.0545
16,AGGCCCTA,-0.311
17,GAACAGCC,-0.0982
18,ACATTCGG,0.137
19,CACTTGGA,0.0348
20,AGAGTCAC,0.43
21,ACTAGTAA,0.0386
22,CAGGTAGG,-0.122
23,CAGGCGGC,0.0327
24,CATATCGA,0.292
25,GGTTGGGA,0.0699

row,Sequence,PBM E-score
1,CTCAACAC,0.0674
2,CGGCTTGC,0.122
3,AACACAGC,0.229
4,ATCTATAC,0.16
5,CCACTCCC,0.0557
6,ACCGTTGA,-0.0903
7,CTGACCCC,-0.0745
8,ACACTTAT,-0.0136
9,ACCGTACT,0.244
10,AATCCTCT,-0.18
11,CACTTCAG,-0.134
12,GGAAGGAA,-0.11
13,AGTCCCTC,-0.096
14,ACTCCGTC,0.0781
15,GCCCGAAC,-0.0883
16,AGCTAGCC,-0.174
17,CCTCAACC,-0.133
18,CTCTCGGC,-0.129
19,AAGTGGGA,0.129
